# Source: PubChem BioAssay (Tox21)
# Values joined by “and” are separate entries in the source; they are usually repeats but may differ in a detail not shown here. Equal values may be shown once. This list was built around the results that the source calls inconclusive (neither active nor inactive); the mix of calls is not that of the screen. For some assays here: Potencies beside an inconclusive call are fits to weak or partial responses and may not hold up. Active and inactive are the calls of the source. Unless noted, calls come from the whole dose curve; as a rule, active = well fitted curve in the direction sought with a large enough effect in the repeat runs; inconclusive = weak or mixed curves; inactive = no such curve, though single readings can be large; an effect the other way counts as inactive or inconclusive.
# How the values were obtained:
# [1] = target: Androgen receptor (Homo sapiens) (UniProt P10275); experiment: qHTS assay to identify small molecule antagonists of the androgen receptor (AR) signaling pathway (AID 743035; active = well fitted inhibition curve with a large enough effect in the signal ratio in the repeat runs, not every such curve was filed as active; inconclusive = weak or mixed curves, or effect the other way; inactive = no such curve, though single readings can be large or run the other way; the % refers to the signal ratio; for activity change, negative = inhibition: % is set by controls: 0 for no effect and ±100 for the full control effect); details: HEK293 AR-UAS-bla, R1881-stimulated, beta-lactamase FRET, 16 h; activity change, negative = inhibition: at 58.5 µM (top of the series) unless noted
# Procedure, shortened: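 Cell line: GeneBLAzer AR-UAS-bla GripTite (HEK293). Stimulus: R1881 added after compound. Exposure: 16 h, 37C, 5% CO2. Readout: LiveBLAzer B/G FRET fluorescence after 2 h at room temperature.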
# [2] = target: Androgen receptor (Homo sapiens) (UniProt P10275); experiment: qHTS assay to identify small molecule agonists of the androgen receptor (AR) signaling pathway (AID 743036; active = well fitted activation curve with a large enough effect in the signal ratio in the repeat runs, with a control signal flat, not every such curve was filed as active; inconclusive = weak or mixed curves, or effect the other way; inactive = no such curve, though single readings can be large or run the other way; the % refers to the signal ratio); details: HEK293 AR-UAS-bla GripTite, beta-lactamase FRET ratio, 16 h; activation: at 62.4 µM (top of the series) unless noted
# Procedure, shortened: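 Beta-lactamase under UAS control, stably integrated in HEK293 GripTite cells, reports receptor activation. After 16 h compound treatment, cells received FRET substrate for 2 h at room temperature before fluorescence reading.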
# [3] = qHTS assay to identify small molecule antagonists of the estrogen receptor alpha (ER-alpha) signaling pathway using the BG1 cell line - cell viability counter screen (AID 743081);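 note: compound given together with 17beta-estradiol as the ER stimulus; nearly all actives have a fitted effect of over 45% in size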
# [4] = target: Aryl hydrocarbon receptor (Homo sapiens) (UniProt P35869); experiment: qHTS assay to identify small molecule that activate the aryl hydrocarbon receptor (AhR) signaling pathway (AID 743085); note: nearly all actives have a fitted effect of over 15% in size
# Procedure, shortened: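 24 h compound exposure, 37C, HepG2-derived HG2L7.5c1 cells with DRE-responsive luciferase. Readouts: fluorescence viability, then luminescence at room temperature after 30 min.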
# [5] = target: Peroxisome proliferator-activated receptor gamma (Homo sapiens) (UniProt P37231); experiment: qHTS assay to identify small molecule agonists of the peroxisome proliferator-activated receptor gamma (PPARg) signaling pathway (AID 743094; active = well fitted activation curve with a large enough effect in the signal ratio in the repeat runs, not every such curve was filed as active; inconclusive = weak or mixed curves, or effect the other way; inactive = no such curve, though single readings can be large or run the other way; the % refers to the signal ratio; for activation: % is set by controls: 0 for no effect and ±100 for the full control effect); details: HEK293H PPARg-UAS-bla, beta-lactamase FRET ratio, 17 h; activation: at 57 µM (top of the series) unless noted
# Procedure, shortened: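 Stably transfected HEK293H cells (GeneBLAzer PPARg UAS-bla) were incubated with test substances for 17 h at 37C after a 5 h pre-incubation; beta-lactamase activity was then detected by FRET substrate fluorescence.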
# [6] = target: Estrogen receptor (Homo sapiens) (UniProt P03372); experiment: qHTS assay to identify small molecule antagonists of the estrogen receptor alpha (ER-alpha) signaling pathway (AID 743069; active = well fitted curve in the direction sought with a large enough effect in the signal ratio in the repeat runs, not every such curve was filed as active; inconclusive = weak or mixed curves, or effect the other way; inactive = no such curve, though single readings can be large or run the other way; the % refers to the signal ratio; for activity, negative = inhibition: % is set by controls: 0 for no effect and ±100 for the full control effect); details: HEK293 ER-alpha-UAS-bla, beta-lactamase ratio, antagonist mode; activity, negative = inhibition: at 69.4 µM (top of the series)
# Procedure, shortened: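 HEK293 ER-alpha-UAS-bla GripTite cells, held overnight in 2% charcoal-stripped FBS, 5,000 cells/well, preincubated 4 h, then compound plus 17beta-estradiol for 18 h at 37C. Beta-lactamase read by LiveBLAzer B/G FRET substrate, 2 h at room temperature.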
# [7] = target: Peroxisome proliferator-activated receptor gamma (Homo sapiens) (UniProt P37231); experiment: qHTS assay to identify small molecule antagonists of the peroxisome proliferator-activated receptor gamma (PPARg) signaling pathway (AID 743191; calls by dose curve; note: nearly all actives have a fitted effect of over 30% in size; for ratio activity, negative = inhibition: % is set by controls: 0 for no effect and ±100 for the full control effect); details: HEK293H PPARg-UAS-bla, beta-lactamase ratio, antagonist, 17 h; ratio activity, negative = inhibition: at 62.6 µM (top of the series) unless noted
# Procedure, shortened: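 GeneBLAzer PPARg UAS-bla HEK293H cells, 5 h post-plating, exposed to compounds 17 h at 37C. LiveBLAzer B/G FRET substrate added for 1 h at room temperature; beta-lactamase reporter read by fluorescence intensity.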
# [8] = qHTS assay to identify small molecule antagonists of the estrogen receptor alpha (ER-alpha) signaling pathway using the BG1 cell line (AID 743080; calls by dose curve;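 note: BG1 cells stimulated with 17beta-estradiol alongside compound; nearly all actives have a fitted effect of over 25% in size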); details: BG1Luc4E2 ERE-luciferase antagonist mode, luminescence; activity change, negative = inhibition: at 70.3 µM (top of the series) unless noted
# Procedure, shortened: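 BG1-Luc-4E2 cells (endogenous full-length ER-alpha, stable 4×ERE-luciferase) were starved 5 days in phenol-red-free medium with 10% charcoal-stripped FBS, plated 24 h, then given compound plus 17beta-estradiol for 21.5 h at 37 C; ONE-Glo luminescence read after 30 min.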
# Aromatase (Homo sapiens) = Aromatase (Homo sapiens) (UniProt P11511); experiment: qHTS assay to identify aromatase inhibitors (AID 743083); note: nearly all actives have a fitted effect of over 55% in size
# [9] = qHTS assay to identify small molecule antagonists of the thyroid receptor (TR) signaling pathway - cell viability counter screen (AID 743064); details: GH3.TRE-Luc viability, CellTiter-Fluor, 24 h; activity change, negative = cytotoxic: at 70.3 µM (top of the series); note: nearly all actives have a fitted effect of over 50% in size
# Procedure, shortened: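 Compounds were tested on GH3.TRE-Luc cells in the presence of T3 at 1 nM final. Following 23.5 h at 37 °C, cell viability was quantified by CellTiter-Fluor.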
# [10] = qHTS assay to identify small molecule antagonists of the thyroid receptor (TR) signaling pathway (AID 743065); note: nearly all actives have a fitted effect of over 55% in size
# Procedure, shortened: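 GH3.TRE-Luc rat pituitary cells (two TREs driving luciferase) were dosed with compound, then stimulated with 1 nM T3 (final) for 23.5 h at 37 C. ONE-Glo luminescence was the read-out, with CellTiter-Fluor fluorescence as the cytotoxicity counter-screen.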
# [11] = qHTS assay to identify small molecule antagonists of the estrogen receptor alpha (ER-alpha) signaling pathway - cell viability counter screen (AID 743074; calls by dose curve;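 note: HEK293 cells carrying ER-alpha-UAS-bla reporter stimulated with 17beta-estradiol; nearly all actives have a fitted effect of over 45% in size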)
# [12] = qHTS assay to identify aromatase inhibitors - cell viability counter screen (AID 743084);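 note: cells stimulated with testosterone during compound exposure; nearly all actives have a fitted effect of over 55% in size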
# [13] = target: Estrogen receptor (Homo sapiens) (UniProt P03372); experiment: qHTS assay to identify small molecule agonists of the estrogen receptor alpha (ER-alpha) signaling pathway (AID 743075; calls by dose curve); details: HEK293 ER-alpha-UAS-bla, beta-lactamase FRET ratio, 18 h; activation: at 70.1 µM (top of the series)
# [14] = target: Estrogen receptor (Homo sapiens) (UniProt P03372); experiment: qHTS assay to identify small molecule agonists of the estrogen receptor alpha (ER-alpha) signaling pathway using the BG1 cell line (AID 743079); details: BG1Luc4E2 cells, ERE-luciferase agonist, 22 h; activation: at 70.3 µM (top of the series) unless noted; note: nearly all actives have a fitted effect of over 20% in size
# [15] = target: Androgen receptor (Homo sapiens) (UniProt P10275); experiment: qHTS assay to identify small molecule antagonists of the androgen receptor (AR) signaling pathway using the MDA cell line (AID 743042; note: nearly all actives have a fitted effect of over 55% in size)
# Procedure, shortened: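 MDA-kb2 breast carcinoma cells carrying MMTV-luciferase (AR/GR responsive) were co-treated with compounds and the agonist R1881 for 16 h at 37C. Inhibition read as ONE-Glo luminescence; CellTiter-Fluor fluorescence measured in parallel for cytotoxicity.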
# [16] = qHTS assay to identify small molecule that activate the aryl hydrocarbon receptor (AhR) signaling pathway - cell viability counter screen (AID 743086); note: nearly all actives have a fitted effect of over 45% in size
# Procedure, shortened: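 HepG2-AhR-luc (HG2L7.5c1) cells, 4000/well, treated 24 h at 37 C with compound; viability measured as CellTiter-Fluor fluorescence after 30 min in the same wells as the luciferase read.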
# Potency is the fitted concentration of half-maximal effect; tags give direction and shape of the fitted curve or compound fluorescence and quenching.
# Chain of UniProt P37231 (P37231 whole entry, looked up): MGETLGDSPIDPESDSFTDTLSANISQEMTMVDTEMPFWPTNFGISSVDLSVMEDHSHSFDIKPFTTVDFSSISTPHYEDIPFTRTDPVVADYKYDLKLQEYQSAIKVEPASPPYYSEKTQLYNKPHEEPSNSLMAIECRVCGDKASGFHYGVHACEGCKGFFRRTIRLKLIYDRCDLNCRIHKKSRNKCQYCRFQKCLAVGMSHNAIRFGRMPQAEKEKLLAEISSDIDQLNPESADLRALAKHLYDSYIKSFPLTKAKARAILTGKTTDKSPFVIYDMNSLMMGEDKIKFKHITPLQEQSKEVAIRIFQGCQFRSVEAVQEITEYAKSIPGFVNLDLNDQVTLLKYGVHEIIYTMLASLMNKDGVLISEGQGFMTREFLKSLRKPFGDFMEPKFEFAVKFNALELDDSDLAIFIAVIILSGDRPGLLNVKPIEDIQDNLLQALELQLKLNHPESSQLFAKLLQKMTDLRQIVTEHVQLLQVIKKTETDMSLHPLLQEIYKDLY
# Chain of UniProt P03372 (P03372 whole entry, looked up): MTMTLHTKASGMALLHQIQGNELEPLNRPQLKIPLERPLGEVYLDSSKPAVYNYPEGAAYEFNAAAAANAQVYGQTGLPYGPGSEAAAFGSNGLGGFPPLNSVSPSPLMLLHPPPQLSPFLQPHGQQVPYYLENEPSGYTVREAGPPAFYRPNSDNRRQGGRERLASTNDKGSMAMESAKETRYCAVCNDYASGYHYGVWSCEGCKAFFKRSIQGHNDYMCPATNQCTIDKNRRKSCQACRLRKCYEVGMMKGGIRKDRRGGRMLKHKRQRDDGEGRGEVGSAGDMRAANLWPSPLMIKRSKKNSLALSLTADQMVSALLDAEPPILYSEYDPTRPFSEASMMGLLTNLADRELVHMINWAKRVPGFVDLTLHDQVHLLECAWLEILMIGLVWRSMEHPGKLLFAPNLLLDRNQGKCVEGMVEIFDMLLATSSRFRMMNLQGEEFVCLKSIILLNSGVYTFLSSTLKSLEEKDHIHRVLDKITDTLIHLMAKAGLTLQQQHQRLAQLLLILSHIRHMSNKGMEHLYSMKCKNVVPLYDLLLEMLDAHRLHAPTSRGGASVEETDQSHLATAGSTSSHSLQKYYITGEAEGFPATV
# Chain of UniProt P10275 (P10275 whole entry, looked up): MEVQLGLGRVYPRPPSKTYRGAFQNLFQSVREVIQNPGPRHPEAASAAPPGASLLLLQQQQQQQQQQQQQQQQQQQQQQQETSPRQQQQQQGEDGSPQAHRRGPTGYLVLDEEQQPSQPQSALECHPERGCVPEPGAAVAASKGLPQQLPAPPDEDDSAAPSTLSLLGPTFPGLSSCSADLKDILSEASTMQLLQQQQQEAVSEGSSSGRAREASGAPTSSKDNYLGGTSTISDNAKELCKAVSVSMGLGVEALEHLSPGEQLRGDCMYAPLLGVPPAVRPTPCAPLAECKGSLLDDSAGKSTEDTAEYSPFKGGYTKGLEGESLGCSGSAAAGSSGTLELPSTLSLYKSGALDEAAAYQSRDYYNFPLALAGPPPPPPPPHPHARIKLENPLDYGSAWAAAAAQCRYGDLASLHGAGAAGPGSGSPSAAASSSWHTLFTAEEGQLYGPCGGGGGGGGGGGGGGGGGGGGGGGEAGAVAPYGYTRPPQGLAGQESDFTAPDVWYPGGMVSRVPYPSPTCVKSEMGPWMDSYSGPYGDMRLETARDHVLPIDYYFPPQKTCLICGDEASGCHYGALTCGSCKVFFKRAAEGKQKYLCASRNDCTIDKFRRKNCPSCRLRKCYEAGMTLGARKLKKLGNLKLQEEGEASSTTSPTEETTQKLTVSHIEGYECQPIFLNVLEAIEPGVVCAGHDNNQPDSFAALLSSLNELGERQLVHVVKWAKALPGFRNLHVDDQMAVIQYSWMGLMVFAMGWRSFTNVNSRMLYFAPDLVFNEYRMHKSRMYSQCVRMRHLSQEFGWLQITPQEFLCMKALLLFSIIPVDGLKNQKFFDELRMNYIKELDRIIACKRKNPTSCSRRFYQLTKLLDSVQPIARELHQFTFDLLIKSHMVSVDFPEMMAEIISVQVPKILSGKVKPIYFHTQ
# Chain of UniProt P11511 (P11511 whole entry, looked up): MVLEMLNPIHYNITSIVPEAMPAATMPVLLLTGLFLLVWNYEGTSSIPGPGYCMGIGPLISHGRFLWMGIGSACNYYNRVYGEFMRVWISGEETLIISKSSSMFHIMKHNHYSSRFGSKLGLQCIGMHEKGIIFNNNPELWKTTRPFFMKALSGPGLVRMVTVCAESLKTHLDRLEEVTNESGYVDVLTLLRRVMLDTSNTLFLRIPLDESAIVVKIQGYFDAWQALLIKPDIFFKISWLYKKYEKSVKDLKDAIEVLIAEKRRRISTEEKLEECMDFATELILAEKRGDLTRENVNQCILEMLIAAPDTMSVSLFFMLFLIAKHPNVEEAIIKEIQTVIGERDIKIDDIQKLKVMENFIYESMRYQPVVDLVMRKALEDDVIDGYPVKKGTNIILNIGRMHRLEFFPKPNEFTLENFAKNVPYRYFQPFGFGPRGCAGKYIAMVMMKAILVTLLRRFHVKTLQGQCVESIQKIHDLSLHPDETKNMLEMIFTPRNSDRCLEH
# Chain of UniProt P35869 (P35869 whole entry, looked up): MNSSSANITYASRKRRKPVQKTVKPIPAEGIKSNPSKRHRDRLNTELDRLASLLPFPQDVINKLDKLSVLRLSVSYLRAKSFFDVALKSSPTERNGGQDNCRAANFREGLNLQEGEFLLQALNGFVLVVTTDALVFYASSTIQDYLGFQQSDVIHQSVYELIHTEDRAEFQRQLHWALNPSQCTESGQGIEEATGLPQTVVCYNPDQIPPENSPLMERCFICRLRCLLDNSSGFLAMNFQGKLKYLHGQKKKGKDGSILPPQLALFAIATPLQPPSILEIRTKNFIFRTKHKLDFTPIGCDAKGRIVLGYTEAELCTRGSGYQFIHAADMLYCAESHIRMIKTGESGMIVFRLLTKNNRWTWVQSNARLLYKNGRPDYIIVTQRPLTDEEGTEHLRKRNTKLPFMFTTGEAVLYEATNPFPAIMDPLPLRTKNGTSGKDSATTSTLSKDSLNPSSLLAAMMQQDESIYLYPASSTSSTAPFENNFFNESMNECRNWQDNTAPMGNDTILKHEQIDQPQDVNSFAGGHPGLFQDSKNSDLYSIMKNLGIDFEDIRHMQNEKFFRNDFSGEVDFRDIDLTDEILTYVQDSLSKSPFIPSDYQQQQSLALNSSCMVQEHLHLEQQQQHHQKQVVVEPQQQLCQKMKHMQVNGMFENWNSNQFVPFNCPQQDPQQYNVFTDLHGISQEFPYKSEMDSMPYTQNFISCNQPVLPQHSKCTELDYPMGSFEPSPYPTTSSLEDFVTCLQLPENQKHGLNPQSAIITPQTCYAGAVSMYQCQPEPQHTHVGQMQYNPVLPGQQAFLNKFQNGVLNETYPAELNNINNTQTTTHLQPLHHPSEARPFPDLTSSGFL
smiles,measurement,setting,value
CCOC(=O)COc1cc(-c2nn(C)c(OC(F)F)c2Cl)c(F)cc1Cl,Potency,[1],"inconclusive: 38.9 µM [rising, partial curve]"
same,Potency,[2],"inconclusive: 3.09 µM [rising, full curve]"
same,Potency,[3],"inconclusive: 27.3 µM [rising, partial curve, poor fit]"
same,Potency,[4],active: 19.3 µM
same,Potency,[5],inactive
Nc1c(Cl)c(F)nc(OCC(=O)O)c1Cl,"activity change, negative = inhibition",[1],inconclusive: 7.76%
same,Potency,[2],"inconclusive: 43.6 µM [rising, partial curve, poor fit]"
same,Potency,[6],inactive
same,"ratio activity, negative = inhibition",[7],inconclusive: -2.51%
Clc1ccc(C(Cl)(Cl)Cl)cn1,Potency,[1],inactive
same,Potency,[2],inactive
same,Potency,[8],"inconclusive: 43.3 µM [falling, partial curve, poor fit]"
same,Potency,Aromatase (Homo sapiens),inactive
same,Potency,[5],inactive
Nc1ccc(Cl)cc1N,Potency,[1],"inconclusive: 22.7 µM [rising, partial curve]"
same,Potency,[9],inconclusive: 71.3 µM [cytotoxic] and active: 42 µM
same,Potency,[10],"inconclusive: 71.3 µM [inhibitor, single point]"
same,Potency,[11],"inconclusive: 54.9 µM [cytotoxic, single point]"
same,Potency,[12],"inconclusive: 63.6 µM [cytotoxic, partial curve, poor fit]"
same,Potency,[5],inconclusive: 43.6 µM [fluorescent]
CCCCCCC[CH2][Sn]([Cl])([Cl])[CH2]CCCCCCC,Potency,[1],active: 21.9 µM
same,activation,[2],inconclusive: 20.2%
same,Potency,[9],"inconclusive: 68.5 µM [cytotoxic, single point]"
same,Potency,[10],active: 54.4 µM
same,Potency,[6],inconclusive: 21.9 µM
same,Potency,[11],active: 24.5 µM
same,Potency,[13],"inconclusive: 21.9 µM [falling, partial curve]"
same,Potency,[14],"inconclusive: 61.1 µM [inhibitor, single point]"
same,"activity change, negative = inhibition",[8],inconclusive: 15.4%
same,Potency,Aromatase (Homo sapiens),"inconclusive: 17.2 µM [inhibitor, partial curve]"
same,activation,[5],inconclusive: 0.863%
same,Potency,[7],"inconclusive: 15.5 µM [inhibitor, full curve]"
S=C=Nc1cccc2ccccc12,Potency,[1],active: 48.5 µM
same,activation,[2],inconclusive: 7.88%
same,Potency,[15],"inconclusive: 9.59 µM [inhibitor, full curve]"
same,Potency,[6],"inconclusive: 43.2 µM [inhibitor, partial curve, poor fit]"
same,Potency,[14],"inconclusive: 30.3 µM [inhibitor, partial curve]"
same,"activity change, negative = inhibition",[8],inconclusive: -14.5%
same,Potency,[5],"inconclusive: 61 µM [rising, partial curve, poor fit]"
N#Cc1c2ccccc2cc2ccccc12,Potency,[1],"inconclusive: 6.15 µM [rising, full curve]"
same,Potency,[2],"inconclusive: 21.8 µM [fluorescent, partial curve]"
same,Potency,[9],"inconclusive: 13.7 µM [rising, partial curve]"
same,Potency,[6],"inconclusive: 13.8 µM [fluorescent, full curve]"
same,Potency,[13],inconclusive: 21.8 µM [fluorescent]
same,activation,[14],inconclusive: 17.6% [phenotype inactive]
same,Potency,[8],"inconclusive: 6.84 µM [rising, full curve]"
same,Potency,[3],"inconclusive: 34.3 µM [rising, partial curve]"
same,Potency,[12],"inconclusive: 6.1 µM [rising, full curve]"
same,Potency,[16],"inconclusive: 5.44 µM [rising, full curve]"
same,Potency,[5],"inconclusive: 43.6 µM [fluorescent, partial curve]"
same,Potency,[7],"inconclusive: 43.6 µM [fluorescent, partial curve]"
c1ccc2cc3c(cc2c1)-c1cccc2cccc-3c12,Potency,[1],"inconclusive: 3.84 µM [rising, full curve, poor fit]"
same,Potency,[2],"inconclusive: 13.6 µM [fluorescent, partial curve]"
same,Potency,[15],"inconclusive: 1.7 µM [inhibitor, full curve]"
same,Potency,[9],"inconclusive: 6.76 µM [rising, partial curve, poor fit]"
same,Potency,[6],"inconclusive: 3.05 µM [fluorescent, full curve]"
same,Potency,[13],"inconclusive: 8.59 µM [fluorescent, full curve]"
same,Potency,[8],active: 0.269 µM
same,Potency,[3],"inconclusive: 42.7 µM [rising, partial curve]"
same,Potency,[12],"inconclusive: 15.1 µM [rising, partial curve]"
same,Potency,[4],active: 0.12 µM
same,Potency,[5],"inconclusive: 6.82 µM [fluorescent, partial curve]"
